Reference: PubChem BioAssay (NCATS)
Inconclusive results, whose numbers are uncertain, are shown with a selection of clear calls. Potencies of inconclusive entries are left out as doubtful fits. Calls of active or inactive are those of the source. Calls come from the whole dose curve; as a rule, active = well fitted inhibition curve with a large enough effect; inconclusive = small, poorly fitted or top-dose-only effect; inactive = no such curve, though single readings can be large or run the other way.

The molecules below were run against Rap guanine nucleotide exchange factor 3 (Homo sapiens) (UniProt O95398) (assay: Confirmatory qHTS for antagonist of cAMP-regulated guanine nucleotide exchange factor 3 (EPAC1) (AID 1645880; note: nearly all actives have a fitted effect of over 55% in size;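 for activity, negative = inhibition: plate controls were DMSO only for no effect and full effect of the ATA control for full effect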)). Settings: EPAC1 Rap1B-BODIPY-GDP exchange, fluorescence; activity, negative = inhibition: at 115 µM (top of the series).
Procedure, shortened: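 Nucleotide exchange uses 100 nM EPAC1, 250 nM RAP1B-BODIPY-GDP and 50 uM GDP, with compounds in a concentration-titration series. After 5 min at room temperature, fluorescence (480 nm ex/540 nm em) is read every 5 min for 30 min. Data are normalized to control ATA and DMSO.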
Potency is the fitted concentration of half-maximal effect; tags give direction and shape of the fitted curve.

Chain of UniProt O95398 (O95398 whole entry, looked up): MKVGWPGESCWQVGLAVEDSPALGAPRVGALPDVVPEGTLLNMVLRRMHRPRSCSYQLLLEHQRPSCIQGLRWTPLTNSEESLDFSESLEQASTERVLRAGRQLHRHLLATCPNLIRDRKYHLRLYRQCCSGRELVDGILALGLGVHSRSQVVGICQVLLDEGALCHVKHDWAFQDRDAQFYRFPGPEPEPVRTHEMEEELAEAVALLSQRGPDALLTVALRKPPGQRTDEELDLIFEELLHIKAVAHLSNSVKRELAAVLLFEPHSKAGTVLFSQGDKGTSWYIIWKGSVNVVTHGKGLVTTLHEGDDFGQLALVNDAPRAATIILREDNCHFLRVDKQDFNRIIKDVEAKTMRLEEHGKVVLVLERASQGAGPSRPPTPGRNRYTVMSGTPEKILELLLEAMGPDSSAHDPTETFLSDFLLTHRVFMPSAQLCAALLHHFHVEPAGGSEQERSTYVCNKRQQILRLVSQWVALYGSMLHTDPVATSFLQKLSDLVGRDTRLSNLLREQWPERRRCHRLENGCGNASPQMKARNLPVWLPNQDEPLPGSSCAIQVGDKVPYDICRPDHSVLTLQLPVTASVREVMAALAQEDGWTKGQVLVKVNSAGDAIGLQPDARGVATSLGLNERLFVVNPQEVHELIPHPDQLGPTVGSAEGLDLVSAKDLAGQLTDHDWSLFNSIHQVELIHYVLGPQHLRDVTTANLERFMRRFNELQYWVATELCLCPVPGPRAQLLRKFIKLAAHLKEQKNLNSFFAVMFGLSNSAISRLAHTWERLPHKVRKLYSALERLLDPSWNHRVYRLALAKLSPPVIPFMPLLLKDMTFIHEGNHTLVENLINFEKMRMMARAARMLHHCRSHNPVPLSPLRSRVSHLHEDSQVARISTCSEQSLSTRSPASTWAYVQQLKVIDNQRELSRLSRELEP

| SMILES | activity, negative = inhibition | Potency |
| --- | --- | --- |
| CC(NCc1cccn1C)c1ccccc1 (stereo unspecified) | inactive: -15.9% | – |
| COc1ccc(N2C(=O)CSC2c2ccccc2F)c(OC)c1 (stereo unspecified) | inactive: -23.8% | – |
| Cn1c(N)c(C(=O)CSc2nnc(-c3c[nH]c4ccccc34)n2C2CC2)c(=O)[nH]c1=O | – | inconclusive [inhibitor, partial curve] |
| O=C(O)CCc1ccc(-c2ccc(Br)cc2)n1-c1ccc(O)cc1 | – | inconclusive [inhibitor, partial curve, poor fit] |
| CCOC(=O)Cc1csc(NC(=O)COc2ccc3ccccc3c2)n1 | – | inconclusive [inhibitor, partial curve, poor fit] |
| OC1C2CN3CCN(C2)CC1(Cc1ccccc1)C3 (stereo unspecified) | inactive: -13.1% | – |
| CC(C)(C)c1ccc(CC(=O)N2CCC2(C)C(=O)NS(=O)(=O)c2ccccc2)cc1 (stereo unspecified) | inactive: -18.2% | – |
| CCCCOC(=O)C1=C(C)Nc2nnnn2C1c1ccccc1Cl (stereo unspecified) | – | inconclusive [inhibitor, partial curve] |
| Cc1ccc(C(=O)Cc2ccccc2)c(O)c1 | – | inconclusive [inhibitor, full curve, poor fit] |
| c1ccc(OCCCn2ccnc2)cc1 | inactive: -11.8% | – |
| Cc1ccc(Cl)cc1NS(=O)(=O)c1ccccc1 | – | inconclusive [inhibitor, partial curve, poor fit] |
